Measured values published in article PMC4336329 (PLoS ONE, 2015).
The campaign covered roughly 310,000 compounds. About 14,000 (4.5%) showed an effect of 50% or more. Effects have a minus sign here. The list shows a part of the results.

Molecular target: human ether-à-go-go-related gene (hERG) potassium channel (human, UniProt Q12809)
Assay: primary screen, population patch clamp on CHO cells stably expressing hERG
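Further: peak tail current of the secondary pulse compared with the same well before compound.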

Chain of human ether-à-go-go-related gene (hERG) potassium channel (Q12809 whole entry, looked up): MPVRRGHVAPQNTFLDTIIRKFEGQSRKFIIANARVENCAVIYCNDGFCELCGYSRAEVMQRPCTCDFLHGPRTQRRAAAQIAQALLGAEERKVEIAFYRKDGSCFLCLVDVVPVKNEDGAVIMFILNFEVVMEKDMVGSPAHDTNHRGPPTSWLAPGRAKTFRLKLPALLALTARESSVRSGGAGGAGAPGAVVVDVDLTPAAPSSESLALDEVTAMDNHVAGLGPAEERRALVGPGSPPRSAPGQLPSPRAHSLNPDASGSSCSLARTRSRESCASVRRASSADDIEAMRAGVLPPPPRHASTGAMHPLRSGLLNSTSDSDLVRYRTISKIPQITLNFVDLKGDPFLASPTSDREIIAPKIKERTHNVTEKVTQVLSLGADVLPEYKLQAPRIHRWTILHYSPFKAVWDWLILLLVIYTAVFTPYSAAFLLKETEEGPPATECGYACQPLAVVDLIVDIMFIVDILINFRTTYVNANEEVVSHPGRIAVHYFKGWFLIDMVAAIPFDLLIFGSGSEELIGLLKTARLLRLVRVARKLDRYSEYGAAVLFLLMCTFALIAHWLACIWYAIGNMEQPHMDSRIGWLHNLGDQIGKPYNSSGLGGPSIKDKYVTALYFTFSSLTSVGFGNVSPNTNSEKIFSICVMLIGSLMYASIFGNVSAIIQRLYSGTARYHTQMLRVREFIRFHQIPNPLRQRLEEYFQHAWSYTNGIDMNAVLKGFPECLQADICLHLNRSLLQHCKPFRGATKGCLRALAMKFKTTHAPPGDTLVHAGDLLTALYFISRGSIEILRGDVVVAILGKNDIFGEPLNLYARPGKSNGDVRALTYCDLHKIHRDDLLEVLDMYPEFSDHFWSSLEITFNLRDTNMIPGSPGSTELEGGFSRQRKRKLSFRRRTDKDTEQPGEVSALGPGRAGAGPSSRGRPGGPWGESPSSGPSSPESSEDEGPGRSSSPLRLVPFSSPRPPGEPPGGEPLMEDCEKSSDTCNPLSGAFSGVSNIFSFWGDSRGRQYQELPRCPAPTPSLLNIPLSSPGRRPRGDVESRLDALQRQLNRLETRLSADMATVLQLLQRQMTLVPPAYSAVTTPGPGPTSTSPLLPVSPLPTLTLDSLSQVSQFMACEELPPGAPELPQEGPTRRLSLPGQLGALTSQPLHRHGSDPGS

Compound	hERG current change (%, negative = inhibition) at 10uM [%]
Cc1ccc(C(=O)OCn2ncc(Cl)c(Cl)c2=O)cc1	-7.78
CCOC(=O)N1CCN(C(=O)c2ccccc2NC(=O)c2ccc(C(C)(C)C)cc2)CC1	-10.1
CC(C)Cn1c(-c2ccc(Cl)cc2)cnc1SCC(=O)N1CCOCC1	-19.6
Cc1cccc(NC(=S)NC23CN4CN(CN(C4)C2)C3)c1	3.61
CCn1cc(Br)c(C(=O)NC(C)c2ccccc2)n1 (stereo not shown)	-1.15
COC(=O)N1[C@H](C)C=C[C@]1(Cc1ccccc1)C(=O)NCCCNc1ncc(C(F)(F)F)cc1Cl	-10.5
CCN(Cc1ccccc1)C(=O)CC(=O)N(CC)Cc1ccccc1	9.05
Cc1ccc(CNc2oc(-c3cccs3)nc2C#N)cc1	0.132
Cn1cc(CCC(=O)N2CCCC(N3CCN(c4ccccc4F)CC3)C2)cn1 (stereo not shown)	-8.85
CCOc1ccc(CCNC(=O)CSC(=S)N2CCCC2)cc1OCC	4.3
Cc1ccc(C)c(NC(=O)c2ccc3nccnc3c2)c1	2.6
COc1ccc(C2N(c3cc(C)on3)C(=O)C3CCCN32)cc1OC (stereo not shown)	7.98
Cn1c(=O)c2c(O)c(C=NCc3ccccc3)c(=O)n(C)c2n(C)c1=O	6.84
CCC(=O)N[C@@H]1CC(C(C)(C)NC(=O)CC)CC=C1C (stereo partly shown)	15.4
CC1CCc2c(sc(NC(=S)NC(=O)c3ccccc3)c2C#N)C1 (stereo not shown)	7.01
CC(=O)c1ccc(NC(=O)COC(=O)c2ccccc2Sc2ccccc2C#N)cc1	18
CCCCCCCc1nc2sc3c(c2c(=O)n1N)CC(C)(C)OC3	12.2
COC(=O)Cn1c(=NC(=O)c2ccc(Cl)s2)sc2cc(F)ccc21	20
CCOc1cc(N2CCOCC2)c(OCC)cc1NC1=NCCCCC1.Cl	11.3
CSc1ccc(CN2CCN(C(=O)Cc3ccccc3)CC2)cc1	-12.1
O=S(=O)(c1ccccc1)N1CCN(Cc2ccccc2C(F)(F)F)CC1	-2.81
Cc1ccc(-c2nc3ncccc3o2)cc1NC(=O)COc1ccccc1	4.88
COC(=O)c1c(NC(=O)c2ccccc2C(=O)O)sc2c1CCC2	11.1
O=C1C(Cc2ccccc2O)NC(=S)N1c1ccccc1 (stereo not shown)	-2
CC(Nc1nc(N2CCCCC2)nc2ccccc12)c1ccccc1 (stereo not shown)	-63.6
